In all, about 150,000 compounds went through this assay and about 540 (0.36%) showed an effect of 50% or more. Some of the results follow.

This note sets out measurements from ChEMBL document CHEMBL4888484, “Replenishing the malaria drug discovery pipeline: Screening and hit evaluation of the MMV Hit Generation Library 1 (HGL1) against asexual blood stage Plasmodium falciparum ,using a nano luciferase reporter read-out” (2022).

The test system of this assay is Plasmodium falciparum. The assay can be described thus: Primary screen in NF54 nanoGlo assay, in single point, at 2uM, 72h; a lower Z score goes with more inhibition. In kind it is functional, Erythrocyte. The note with it: timepoint 72 hour.
For the molecule `Clc1cccc2c1CC[C@@H]2N1CCC(n2cncn2)CC1`, the “% Inhibition” value is on record as -18% and the Z score is 2.15.
Turning to `Cc1ccc(CCNc2ncnc3c(-c4ccccc4)noc23)cc1`, the “% Inhibition” value was 7% and the Z score was -1.38.
`CC1(C)CC[C@H](CNC(=O)NCc2cnccn2)O1`: the “% Inhibition” value is on record as -16% and the Z score is 1.74.
In the same order, the values of `C[C@@H]1C[C@H](O)CN(C(=O)NC(c2cncc(Br)c2)C2CC2)C1` (stereo not given in full) are 14% and -1.79.
Consider `O=C(CCc1ccccc1)N1CCCCC[C@H]1c1nnc(-c2ccccc2)o1`, for which the “% Inhibition” value is on record as -14% and the Z score amounted to 2.62.
On to `Cc1noc(C(F)F)c1C(=O)N[C@H]1C[C@H](C)S(=O)(=O)c2sccc21`, for which the “% Inhibition” value was -8% and the Z score is on record as 1.21.
The corresponding values for `Cc1ccc(Nc2nc(=O)[nH]nc2C)cc1N(C)C` are -6% and 0.79.
As to `O=C(Cn1c(=O)n(CCc2ccccc2)c(=O)c2ccccc21)NCc1ccc(F)cc1`, the “% Inhibition” value stood at 7% and the Z score is -0.96.
In the case of `CC(NC(=O)[C@H]1C[C@@H]1c1cccc(Cl)c1)c1nc[nH]n1` (stereo not given in full), the “% Inhibition” value was -20% and the Z score is on record as 2.55.
In the case of `CN(CC(F)(F)F)C(=O)Cn1ccncc1=O`, the “% Inhibition” value is reported as -3% and the Z score was found to be 0.45.
Take `c1ccc(-c2ncn(CCc3[nH]nc4c3CCCC4)c2-c2cccnc2)cc1`: the “% Inhibition” value was found to be 1% and the Z score is -0.11.
In the case of `Cc1cc(C)c(OCCNC(=O)N2CCC3(CC2)CNC(=O)O3)c(C)c1`, the “% Inhibition” value is given as -2% and the Z score was 0.33.
`CCC(CC)C(=O)Nc1cccc(NC(C)=O)c1`: the “% Inhibition” value was -8% and the Z score worked out at 1.47.
Consider `CCN1CC(C(=O)NC(c2cncc(Br)c2)C2CC2)CC1=O` (stereo not given), for which the “% Inhibition” value is -8% and the Z score is 0.97.
With `NC(=O)COc1ccc(S(=O)(=O)NCc2nccnc2-c2cccs2)cc1`, the “% Inhibition” value was -11% and the Z score is 2.07.
In the same order, the values of `OC(CC1CCCN1c1ccnc(C2CC2)n1)c1ccc(F)cc1` (stereo not given) are -1% and 0.12.
For `Cc1cc(C)cc(OCC(=O)N(Cc2cccs2)c2ccccc2Cl)c1`, the “% Inhibition” value came out at 17% and the Z score is -2.
With `COCCOc1ccc(-c2ncc(F)c(N(C)C)n2)cc1`, the “% Inhibition” value was -3% and the Z score stood at 0.4.
With `COC(=O)C(C)(C)N(C(=O)Cc1csc(C)n1)C(C)C`, the “% Inhibition” value was -11% and the Z score amounted to 0.91.
The corresponding values for `CCc1cc(C(=O)NCCOC)sc1C` are -7% and 1.13.
For `CCO[C@H]1COC[C@@H]1Nc1ncnc2[nH]ccc12`, the “% Inhibition” value is on record as 0% and the Z score was determined as 0.08.
As for `COc1ncc(Cl)c(N(C)[C@H](CO)CC(C)C)n1`, the “% Inhibition” value was -17% and the Z score is listed as 2.13.
As to `CCc1nc(CN(C)Cc2cnc(NS(=O)(=O)c3ccccc3)nc2)no1`, the “% Inhibition” value is recorded as 1% and the Z score is listed as -0.13.
In the same order, the values of `Cc1n[nH]cc1CNCc1ccc(Cn2ccnc2)cc1` are -12% and 1.79.
Turning to `CS(=O)(=O)Cc1ccc(N2CC[C@@]3(CCCNC3=O)C2)nc1`, the “% Inhibition” value is 1% and the Z score is recorded as -0.08.
In the same order, the values of `COc1ccc2cc(C(=O)N3CC[C@H](Oc4cc(C(F)(F)F)ccn4)C3)[nH]c2c1` are -8% and 1.45.
As to `Cc1cc(C)c(-c2nc3ccc(-c4ccc5c(c4)OCO5)cc3o2)cc1C`, the “% Inhibition” value is -32% and the Z score is 2.8.
In the case of `CC1CN(CC(=O)NC2CCCCNC2=O)C(C)CO1` (stereo not given), the “% Inhibition” value is given as -16% and the Z score came to 2.08.
Regarding `CC(NC(N)=O)C(=O)N1CCN(c2ccc(F)cc2F)CCC1C` (stereo not given), the “% Inhibition” value was -5% and the Z score turned out to be 0.62.
With `O=C1CCCN1[C@H]1CCCN(S(=O)(=O)CC2CCCCC2)CC1`, the “% Inhibition” value is -7% and the Z score turned out to be 1.12.
The corresponding values for `CC(C)Cn1cc(C(=O)OCC2CCC(C)O2)cn1` (stereo not given) are -11% and 1.26.
With `c1cc(-c2csc(C3CCOCC3)n2)ccn1`, the “% Inhibition” value is reported as 11% and the Z score is reported as -2.02.
As for `O=C(O)CC1(NC(=O)[C@H]2CC23CCCC3)CCC1`, the “% Inhibition” value is listed as -9% and the Z score came out at 1.07.
In the same order, the values of `CCc1cc2c(N3CC(C)(C)C3(C)C)ncnc2s1` are -2% and 0.21.
`COC(=O)C1CCC(S(=O)(=O)c2ccccc2)N1C(=O)OC(C)(C)C` (stereo not given): the “% Inhibition” value is -11% and the Z score is listed as 1.58.
The corresponding values for `CC(=O)N1c2ccccc2[C@@H](C)CC12CCCCC2` are -7% and 1.25.
In the same order, the values of `COc1ccnc(C(=O)N(Cc2cnn(C)c2)C(C)C)c1` are -10% and 1.37.
Regarding `Cc1ccccc1C(=O)Nc1ccc2c(c1)C(=O)N(C)c1ccccc1O2`, the “% Inhibition” value is listed as -5% and the Z score stood at 0.54.
With `C[C@H]1CN(Cc2ccc(C#N)cc2)CCN1C(=O)c1ccc(S(=O)(=O)NC2CC2)cc1`, the “% Inhibition” value is -6% and the Z score came out at 0.76.
On to `CCc1[nH]c2ccc(CNc3nccc(N4CCC[C@H](O)C4)n3)cc2c1C`, for which the “% Inhibition” value stood at 6% and the Z score is on record as -0.83.
For `COCc1noc(C2CCCCCC2)n1`, the “% Inhibition” value was -16% and the Z score is 1.66.
Consider `COCC1(C(=O)NCC[C@H]2CCOC2)CCC1`, for which the “% Inhibition” value is -16% and the Z score is 2.07.
Consider `CCOC(=O)c1nn(CCc2ccccc2)c2c1CN(C(=O)c1n[nH]c3ccccc13)CC2`, for which the “% Inhibition” value was determined as 0% and the Z score is on record as -0.05.
In the same order, the values of `O=C(Nc1cccc(S(=O)(=O)N2CCOCC2)c1)C1CCN(C(=O)c2ccco2)CC1` are 13% and -1.57.
Turning to `O=C(C[C@@H]1C=CCC1)NCc1cccnc1-n1ccnc1`, the “% Inhibition” value is reported as -9% and the Z score came out at 1.28.
As for `Cc1coc(C)c1C(=O)C[C@@]1(O)C(=O)N(Cc2ccccc2Cl)c2ccccc21`, the “% Inhibition” value came to 32% and the Z score is listed as -3.68.
In the same order, the values of `CC(C)(C)OC(=O)NC1CCCC(Nc2cnccn2)C1` (stereo not given) are -2% and 0.22.
Consider `N#Cc1ncnnc1-c1ccc(F)cc1`, for which the “% Inhibition” value was found to be 0% and the Z score was determined as 0.02.
For the molecule `Cn1cc(C2CCCN2CC(O)COCc2cccs2)cn1` (stereo not given), the “% Inhibition” value is -9% and the Z score came to 1.18.
`CCC(=O)N1CCC[C@H]1C(=O)N1CCc2[nH]c(-c3ccc(OC)nc3)nc2C1`: the “% Inhibition” value is listed as -9% and the Z score worked out at 0.86.
As for `C[C@@H]1CN(Cc2ccc3c(c2)CN(Cc2ccc(Oc4ncccn4)cc2)CCO3)C[C@H](C)O1`, the “% Inhibition” value is -5% and the Z score amounted to 0.91.
The corresponding values for `Cc1ccc2c(=O)c(-c3nc(-c4ccccc4C)no3)cn(CC(=O)NCc3ccccc3Cl)c2n1` are -28% and 2.43.
In the same order, the values of `CC(C)C[C@H](C)N(C)CCC(=O)Nc1ccccc1C#N` are -8% and 1.47.
The corresponding values for `O=C1c2ccccc2CN1C1CCCCCC1CO` (stereo not given) are -11% and 1.12.
`Cc1nc(NC(=O)CCC(=O)c2ccccc2)n(C)n1`: the “% Inhibition” value is given as -6% and the Z score is reported as 1.13.

As usually defined, the % Inhibition is the drop in the measured response relative to a control, in per cent.
